Results published in US20220125947A1.

B1: VG9B396 (antibody, human IgG1, lambda)
heavy: EVQLVESGPGLVQPSETLSLTCTVSGDSIRGYYWNWIRQPAGKGLEWIGRIFTTGNTNYNPSLKSRLTMSLDTSKNQFSLKLNSVTAADTAVYYCAREKWDSSSSALYFDFWGQGTLVTVSS[human IgG1 constant region omitted here]
light: QSVLTQAPSVSGAPGQRVTISCTGSSSNIGADYDVKWYQQLPGTAPKLLIYGNTDRPSGVPDRFSGSKSGTSASLAITGLQAEDEADYYCQSYDSRLTGYVVFGGGTKLTVLGQPKAAPSVTLFPPSSEELQANKATLVCLISDFYPGAVTVAWKADSSPVKAGVETTTPSKQSNNKYAASSYLSLTPEQWKSHRSYSCQVTHEGSTVEKTVAPTECS
B2: VG9B470 (antibody, human IgG1, kappa)
heavy: QVTLKESGPTLVKPTQTLTLTCTFSGFSLTTSGVGVGWIRQPPGKALEWLALILWNDHTIYSPSLKSRLTITKDTSKNQVVLTMTNMDPVDTAAYFCARDKWELRDAFDIWGQGTMVTVSS[human IgG1 constant region omitted here]
light: EIVMTQSPSFLSASVGDRVTFTCRASQGISRYLAWYQQKPGRAPNLLIYVASTLQSGVPSRFSGSGSGTEFTLTISSLLPEDFATYYCQQLISYPYTFSQGTRLEIKRTVAAPSVFIFPPSDEQLKSGTASVVCLLNNFYPREAKVQWKVDNALQSGNSQESVTEQDSKDSTYSLSSTLTLSKADYEKHKVYACEVTHQGLSSPVTKSFNRGEC
B3: VG9B201 (antibody, human IgG1, lambda)
heavy: QVTLKESGPTLVKPTQTLTLTCTFSGFSLTTHGVGVGWIRQPPRKALEWLALIYWNADKHYSPSLKSRLTITKDTSKNQVVLTMTHMDPVDTATYYCAHEGDWGHYFDFWGQGTLVTVSS[human IgG1 constant region omitted here]
light: QLVLTQPPSVSAAPGQKVTISCSGSSSNIGNNDVSWYQQLPGTAPKLLIYDNNRRPSGIPDRFSGSKSGTSATLGITGLQTGDEADYYCETWDSSLSAIWVFGGGTKVTVLGQPKAAPSVTLFPPSSEELQANKATLVCLISDFYPGAVTVAWKADSSPVKAGVETTTPSKQSNNKYAASSYLSLTPEQWKSHRSYSCQVTHEGSTVEKTVAPTECS
B4: VG9B383 (antibody, human IgG1, lambda)
heavy: QVQLQESGPGLVKPSETLSLTCTVSSGSISSYYWNWIRQPAGKGLEWVGRIYTIGNTNYNPSLKSRVTMSIDTSKNQFSLNLSSVTAADTAVYFCAREGYYDSSGSFFPGAFGIWGQGTMVTVSS[human IgG1 constant region omitted here]
light: SSELTQPASVSGSPGQSITISCTGTSNDVGSYNLVSWYQQHPGKAPKLMIYAGSKRPSGISNRFSGSKSGNTASLTISGLQAEDEADYYCCSFAGATNVVFGGGTKLTVLGQPKAAPSVTLFPPSSEELQANKATLVCLISDFYPGAVTVAWKADSSPVKAGVETTTPSKQSNNKYAASSYLSLTPEQWKSHRSYSCQVTHEGSTVEKTVAPTECS
B5: VG9B382 (antibody, human IgG1, lambda)
heavy: QVQLQESGPGLVKPSETLSLTCTVSGDSISGYYWNYIRQPAGKGLDWIGRIFTTGNTNYNPSLKSRVTMSVDTSKNQFSLKLTSVTAADTAVYYCARERWDSSSSALYFDYWGQGTLVTVSS[human IgG1 constant region omitted here]
light: QSVLTQPPSVSGAPGQRVTISCTGSSSNIGADYDIKWYQQLPGTAPKLLIYGNSNRPSGVPDRFSGSKSGTSVSLAITGLQAEDEADYYCQSYDSSMSGYVVFGGGTKLTVLGQPKAAPSVTLFPPSSEELQANKATLVCLISDFYPGAVTVAWKADSSPVKAGVETTTPSKQSNNKYAASSYLSLTPEQWKSHRSYSCQVTHEGSTVEKTVAPTECS
B6: VG9B465 (antibody, human IgG1, lambda)
heavy: QVQLQQSGPGLVKPSETLSLTCTVSGGSITSYYWNWIRQPAGKGLEWIGRIYTIGNTNYNPSLKSRVTMSIDTSKHQFSLKLSSVTGADTAVYYCAREGYYESDGSFFPGAFNIWGQGTMVTVSS[human IgG1 constant region omitted here]
light: SSELTQPASVSGSPGQSITISCTGTSNDVGSYNLVSWYQQHPGKAPKLMIYAGSKRPSGISNRFSGSKSGNTASLTISGLQAEDEADYYCCSYAGTTNVVFGGGTKVTVLGQPKAAPSVTLFPPSSEELQANKATLVCLISDFYPGAVTVAWKADSSPVKAGVETTTPSKQSNNKYAASSYLSLTPEQWKSHRSYSCQVTHEGSTVEKTVAPTECS
B7: VG9B194 (antibody, human IgG1, lambda)
heavy: EVQLLESGAEVKKPGASVKVSCKASGYTFTGDYMHWVRQAPGQGLEWMGWINPNSGYTNNAEKFQGRVTMTRDTSISTAYMELSRLSSDDTAVYYCTRELDALDVWGQGTMVTVSS[human IgG1 constant region omitted here]
light: QSVLTQPPSASGSPGQSVTISCTGTSSDVGGYNYVSWYQQHPGKAPKLMIYEVSKRPSGVPDRFSGSKSGNTASLTVSGLQAEDEADYYCNSYAGSNNFEVFGGGTKVTVLGQPKAAPSVTLFPPSSEELQANKATLVCLISDFYPGAVTVAWKADSSPVKAGVETTTPSKQSNNKYAASSYLSLTPEQWKSHRSYSCQVTHEGSTVEKTVAPTECS
B8: VG9B87 (antibody, human IgG1, kappa)
heavy: QVQLVESGAEVKKPGASVKVSCKASGYTFTSEYIHWVRQAPGQGLEWMGIINPSGGSTSYAQRFQGRVTMTRDTSTSTVYMEVNSLRSEDTAVYYCARERGYSYGSFDYWGQGTLVTVSS[human IgG1 constant region omitted here]
light: EIVLTQSPSFLSASAGDRVTITCRASQGISSYLAWYQQKPEKAPKLLIYAASTLQSGVPSRFSGSGSGTEFTLTISSLQPEDFATYYCQQFNSYSLTFGGGTKLEIKRTVAAPSVFIFPPSDEQLKSGTASVVCLLNNFYPREAKVQWKVDNALQSGNSQESVTEQDSKDSTYSLSSTLTLSKADYEKHKVYACEVTHQGLSSPVTKSFNRGEC
B9: VG9B208 (antibody, human IgG1, lambda)
heavy: QVQLQESGPGLVKPSETLSLTCTVSGGSISGYYWSWIRQPPGKGLELIGYIFYSGSINYNPSLKNRVTISLDTSKNQFSLKLTSVTAADTAVYYCARVGKWELRSSFDIWGQGTMVTVSS[human IgG1 constant region omitted here]
light: QSVLTQPPSVSAAPGQKVTISCSGSTSNIGNNDVSWYQQLPGTAPKLLIYDNNKRPSGIPDRFSGSKSGTSATLGITGLQTGDEADYYCGTWDSSLSVWVFGGGTKLTVLGQPKAAPSVTLFPPSSEELQANKATLVCLISDFYPGAVTVAWKADSSPVKAGVETTTPSKQSNNKYAASSYLSLTPEQWKSHRSYSCQVTHEGSTVEKTVAPTECS
B10: VG9B177 (antibody, human IgG1, lambda)
heavy: QVQLQESGPGLVKPSETLSLTCTVSGGSINNYFWSWIRQPPGKGLEWIGYIFYSGSTNYNPSLKSRVTISIDTSKNQFSLKVNSVTAADTAVYYCARVGKWELRTAFDIWGQGTMVTVSS[human IgG1 constant region omitted here]
light: QSALTQPASVSGSPGQSITISCTGTSSDVADYNYVSWYQQHPGKAPKLMIYEVSNRPSGVSNRFSGSKSGNTASLTISGLQAEDEADYYCCSYTSSFTVVFGGGTKVTVLGQPKAAPSVTLFPPSSEELQANKATLVCLISDFYPGAVTVAWKADSSPVKAGVETTTPSKQSNNKYAASSYLSLTPEQWKSHRSYSCQVTHEGSTVEKTVAPTECS
B11: VG9B114 (antibody, human IgG1, kappa)
heavy: EVQLVESGGDLVQPGGSLRLSCAASGFTFSRYDMHWVRQATGKGLEWVSAIGSAGDTYYPGSVKGRFTISRENAKNSLYLQMNSLRAGDTAVYYCARGKWELRDAFDIWGQGTMVTVSS[human IgG1 constant region omitted here]
light: DIVMTQSPSFLSASVGDRVTITCRASQGIHSYLAWYQQKPGKAPKLLIYVASTLQSGVPSRFSGSRSGTEFTLTISSLQPEDFATYYCQQLNSYPYTFGQGTKLEIKRTVAAPSVFIFPPSDEQLKSGTASVVCLLNNFYPREAKVQWKVDNALQSGNSQESVTEQDSKDSTYSLSSTLTLSKADYEKHKVYACEVTHQGLSSPVTKSFNRGEC

The binders below were run against TCR Vδ2 (TRDV2) (human), A0JD36 (assay: cell-based or functional assay).
Chain of TCR Vδ2 (TRDV2) (human), A0JD36 (A0JD36 20-115, stated change not applied): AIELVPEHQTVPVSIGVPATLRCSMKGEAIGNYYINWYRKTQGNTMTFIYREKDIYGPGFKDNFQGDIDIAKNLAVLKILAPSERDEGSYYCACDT
B1 gave a CD25+ (Vg9+ cells), flow staining of 44.7%, a CD71+ (Vg9+ cells), flow staining of 92.7% and a Granzyme B (Luminex, supernatant) of 1390. It also gave an IFNγ (Luminex, supernatant) of 531 and a Vg9 T cell %, flow staining of 2.7%. With B2 the CD25+ (Vg9+ cells), flow staining was 43.5%, the CD71+ (Vg9+ cells), flow staining was 92.6% and the Granzyme B (Luminex, supernatant) was 2230. It also gave an IFNγ (Luminex, supernatant) of 828, an IL6 (Luminex, supernatant) of 554 and a TNFα (Luminex, supernatant) of 3660. It also gave a Vg9 T cell %, flow staining of 2.3%. In the case of B3, the CD25+ (Vg9+ cells), flow staining is reported as 21.8%, the CD71+ (Vg9+ cells), flow staining is reported as 89.4% and the Granzyme B (Luminex, supernatant) is reported as 987. It also gave an IFNγ (Luminex, supernatant) of 225, an IL6 (Luminex, supernatant) of 77 and a TNFα (Luminex, supernatant) of 460. It also gave a Vg9 T cell %, flow staining of 4.2%. Binder B4 has a CD25+ (Vg9+ cells), flow staining of 29.7%, a CD71+ (Vg9+ cells), flow staining of 91.3% and a Granzyme B (Luminex, supernatant) of 6030. For the same binder, the IFNγ (Luminex, supernatant) was 1240, the IL6 (Luminex, supernatant) was 379 and the TNFα (Luminex, supernatant) was 687. It also gave a Vg9 T cell %, flow staining of 6.4%. B5 was tested, and the CD25+ (Vg9+ cells), flow staining was 32.7%, the CD71+ (Vg9+ cells), flow staining was 93.9% and the Granzyme B (Luminex, supernatant) was 1640. It also gave an IFNγ (Luminex, supernatant) of 440, an IL6 (Luminex, supernatant) of 46 and a TNFα (Luminex, supernatant) of 49. It also gave a Vg9 T cell %, flow staining of 6%. In the case of B6, the CD25+ (Vg9+ cells), flow staining is reported as 28.7%, the CD71+ (Vg9+ cells), flow staining is reported as 94% and the Granzyme B, Luninex (supernatant) is reported as 1470. For the same binder, the IFNγ, Luninex (supernatant) was 795, the IL6, Luninex (supernatant) was 126 and the TNFα, Luninex (supernatant) was 132. It also gave a Vg9 T cell %, flow staining of 3.6%. B7 showed a CD25+ (Vg9+ cells), flow staining of 17%, a CD71+ (Vg9+ cells), flow staining of 82.6% and a Granzyme B, Luninex (supernatant) of 316. The IFNγ, Luninex (supernatant) was 44, the IL6, Luninex (supernatant) was 40 and the TNFα, Luninex (supernatant) was 276. For the same binder, the Vg9 T cell %, flow staining was 3.7%. In the case of B8, the CD25+ (Vg9+ cells), flow staining is reported as 32.9%, the CD71+ (Vg9+ cells), flow staining is reported as 94.5% and the Granzyme B, Luninex (supernatant) is reported as 652. For the same binder, the IFNγ, Luninex (supernatant) was 154, the IL6, Luninex (supernatant) was 117 and the TNFα, Luninex (supernatant) was 674. For the same binder, the Vg9 T cell %, flow staining was 4.5%. For B9, the CD25+ (Vg9+ cells), flow staining was 16.8%, the CD71+ (Vg9+ cells), flow staining was 91.7% and the Granzyme B, Luninex (supernatant) was 618. It also gave an IFNγ, Luninex (supernatant) of 68, an IL6, Luninex (supernatant) of 31 and a TNFα, Luninex (supernatant) of 22. The Vg9 T cell %, flow staining was 3.8%. Binder B10 has a CD25+ (Vg9+ cells), flow staining of 22.8%, a CD71+ (Vg9+ cells), flow staining of 88.6% and a Granzyme B, Luninex (supernatant) of 768. The IFNγ, Luninex (supernatant) was 60, the IL6, Luninex (supernatant) was 117 and the TNFα, Luninex (supernatant) was 99. For the same binder, the Vg9 T cell %, flow staining was 2.4%. Work on B11 yielded a CD25+ (Vg9+ cells), flow staining of 53.7%, a CD71+ (Vg9+ cells), flow staining of 98.3% and a Granzyme B, Luninex (supernatant) of 3900. For the same binder, the IFNγ, Luninex (supernatant) was 1080, the IL6, Luninex (supernatant) was 731 and the TNFα, Luninex (supernatant) was 7000. The Vg9 T cell %, flow staining was 9.7%.
